This is one part of the list.

The test system of one test is HSkMC (human skeletal muscle cells). The test is described as follows: cytotoxicity call (relative viability < 0.9). Conditions: 10 µM.
Consider `COc1ccccc1NC(=O)N(C)C[C@@H]1Oc2ncc(C#CC(C)C)cc2C(=O)N([C@H](C)CO)C[C@H]1C`, for which the cytotoxicity call is “inactive”. The same measure, in the same setting: as for `C[n+]1cccc(C(=O)O)c1`, the entry is “inactive”; as for `O=C(C[C@H]1CC[C@@H]2[C@H](COC[C@@H](O)CN2S(=O)(=O)c2ccccc2)O1)NCCN1CCCCC1`, “inactive”; as for `COCCCNC(=O)[C@@]1(Cc2ccccc2I)c2ccccc2C(=O)N(Cc2ccccc2OC)[C@H]1c1ccc(CO)cc1`, “inactive”. Take `CC(C)NC(=O)N(C)C[C@@H]1Oc2cc(C#Cc3cccc(F)c3)ccc2S(=O)(=O)N([C@@H](C)CO)C[C@@H]1C`: the cytotoxicity call is “inactive”.

As for `Cc1noc(C)c1S(=O)(=O)Nc1ccc2c(c1)C(=O)N([C@@H](C)CO)C[C@H](C)[C@@H](CN(C)S(=O)(=O)c1ccc(F)cc1)O2`, the cytotoxicity call is “inactive”. As to `COc1cccc(CN(C)C[C@@H]2OCc3ccccc3-c3c(n(C)c4ccccc34)C(=O)N([C@H](C)CO)C[C@H]2C)c1`, the cytotoxicity call is “inactive”.

Turning to `Cc1cc(C)n(-c2nc(=O)cc(C)[nH]2)n1`, the cytotoxicity call was “inactive”. For `C[C@@H]1CN([C@H](C)CO)C(=O)c2cc(NS(=O)(=O)c3ccccc3)ccc2O[C@H]1CN(C)Cc1ccc(-c2ccccc2)cc1`, the cytotoxicity call is “inactive”. Regarding `C=CCCCCCCCCC(=O)Nc1ccccc1C`, the cytotoxicity call was “inactive”. Same read-out and setting: as for `C[C@H](CO)N1C[C@H](C)[C@H](CN(C)C(=O)Nc2ccc(F)cc2)Oc2c(NS(=O)(=O)c3cn(C)cn3)cccc2C1=O`, the entry is “inactive”.

A further test relates to S. aureus RN4220. Description: growth inhibition call (relative growth <= 0.2). To be noted: 50 µM.
Take `O=C(O)CCC(=O)Nc1ccccn1`: the growth inhibition call is “inactive”. As to `C[C@H](CO)N1C[C@H](C)[C@H](CN(C)C(=O)NC2CCCCC2)OCCCC[C@H](C)Oc2ccc(NC(=O)Nc3ccc(F)cc3)cc2C1=O`, the growth inhibition call was “inactive”.

Take `CN(C)CC(=O)N1CC(=O)N2[C@H](CO)[C@H](c3ccc(C#Cc4cccnc4)cc3)[C@@H]2C1`: the growth inhibition call was “inactive”. As for `CC(C)NC(=O)Nc1ccc2c(c1)C(=O)N([C@H](C)CO)C[C@@H](C)[C@H](CN(C)CC1CCCCC1)OCCCC[C@H](C)O2`, the growth inhibition call is “inactive”. Regarding `CC(C[N+](C)(C)C)OC(N)=O.[Cl-]` (stereo not given), the growth inhibition call was “inactive”.

For `C[C@@H]1CN([C@@H](C)CO)C(=O)c2cc(NC(=O)Nc3ccc(C(F)(F)F)cc3)ccc2O[C@@H](C)CCCCO[C@@H]1CN(C)Cc1ccc(C(F)(F)F)cc1`, the growth inhibition call was “inactive”. Same read-out and setting: in the case of `C[C@@H]1CCCCO[C@@H](CN(C)S(=O)(=O)c2cccs2)[C@H](C)CN([C@@H](C)CO)C(=O)c2cc(NC(=O)c3ccccc3)ccc2O1` it was “inactive”; in that of `C[C@@H]1CN([C@@H](C)CO)C(=O)Cc2cc(NS(=O)(=O)c3ccc(F)cc3)ccc2O[C@@H]1CN(C)Cc1ccncc1`, “inactive”; in that of `COc1ccc(NC(=O)N(C)C[C@H]2OCCCC[C@H](C)Oc3ccc(NS(=O)(=O)c4cccs4)cc3C(=O)N([C@H](C)CO)C[C@@H]2C)cc1`, “inactive”. Still for that read-out and setting: in the case of `C[C@H](CO)N1C[C@H](C)[C@@H](CN(C)C)Oc2ccc(NS(=O)(=O)c3ccc(Cl)cc3)cc2CC1=O` it was “inactive”. The same measure, in the same setting: as for `O=C(C[C@@H]1C[C@H]2c3cc(NC(=O)Cc4ccncc4)ccc3O[C@H]2[C@H](CO)O1)NCCN1CCCCC1`, the entry is “inactive”.

Take `COc1ccc(NC(=O)Nc2ccc3c(c2)C(=O)N([C@@H](C)CO)C[C@H](C)[C@H](CN(C)Cc2ccccc2)OCCCC[C@H](C)O3)cc1`: the growth inhibition call was “inactive”. Same read-out and setting: in the case of `C[C@@H]1CN([C@@H](C)CO)C(=O)c2cccc(NC(=O)c3ccc(-c4nccs4)cc3)c2O[C@H]1CN(C)C(=O)Nc1ccc2c(c1)OCO2` it was “inactive”; in that of `O=C1O[C@@H](c2ccccc2)[C@@H](c2ccccc2)N2[C@@H](c3ccccc3OCCO)[C@]3(C(=O)Nc4ccc(C#CC5=CCCCC5)cc43)[C@@H](C(=O)O)[C@H]12`, “inactive”; in that of `C[C@H](CO)N1C[C@H](C)[C@@H](CN(C)C(=O)NC2CCCCC2)OCCCC[C@H](C)Oc2ccc(NC(=O)CCC(F)(F)F)cc2C1=O`, “inactive”.

Regarding `CC(=O)NCCCC[C@@H]1NC(=O)[C@@H]2C[C@H](C(=O)NCCCCN(C)C)[C@H](c3cccc(OCCO)c3)N2C1=O`, the growth inhibition call is “inactive”. On the same count and under the same terms, as for `C[C@@H]1CN([C@@H](C)CO)C(=O)CCCn2cc(nn2)CO[C@@H]1CN(C)C(=O)Nc1cccc2ccccc12`, the entry is “inactive”; as for `C[N+](C)(C)CCCC[C@@H]1NC(=O)[C@H]2C[C@@H](C(=O)NCCCCCCN)[C@@H](c3ccc(O)cc3)N2C1=O`, “inactive”.

With `COc1cccc(S(=O)(=O)Nc2ccc3c(c2)[C@H]2C[C@H](CC(=O)N4CCCCC4)O[C@H](CO)[C@H]2O3)c1`, the growth inhibition call is “inactive”.

`Cc1noc(C)c1NC(=O)Nc1cccc2c1O[C@@H](CN(C)Cc1ccc(Cl)c(Cl)c1)[C@@H](C)CN([C@H](C)CO)C2=O`: the growth inhibition call is “inactive”. On the same count and under the same terms, as for `CO[C@@H](CN(C)S(=O)(=O)c1cccc(Cl)c1)[C@H](C)CN([C@@H](C)CO)S(=O)(=O)c1ccc(Cl)cc1`, the entry is “inactive”.

As for `Fc1cccc(-c2csc(COc3ccccc3Cl)n2)c1`, the growth inhibition call was “inactive”. The same measure, in the same setting: in the case of `C[C@@H]1CCCCO[C@@H](CN(C)S(=O)(=O)c2ccc(Cl)cc2)[C@@H](C)CN([C@H](C)CO)C(=O)c2cc(NS(=O)(=O)c3ccc(Cl)cc3)ccc2O1` it was “inactive”; in that of `Cc1ccc(S(=O)(=O)N(C)C[C@H]2Oc3ccc(NC(=O)Nc4cccc5ccccc45)cc3CC(=O)N([C@H](C)CO)C[C@H]2C)cc1`, “inactive”.

Turning to `CC1OC(OC2C(Oc3cc(O)c4c(=O)cc(-c5ccc(O)cc5)oc4c3)OC(CO)C(O)C2O)C(O)C(O)C1O` (stereo not given), the growth inhibition call was “inactive”. Turning to `C[C@@H]1CN([C@H](C)CO)C(=O)c2cccc(NC(=O)c3nc4ccccc4s3)c2O[C@@H]1CN(C)S(=O)(=O)c1cn(C)cn1`, the growth inhibition call was “inactive”.

Consider `C[C@@H]1CCCCO[C@H](CN(C)S(=O)(=O)c2ccccc2)[C@@H](C)CN([C@H](C)CO)C(=O)c2cc(NC(=O)Nc3ccccc3)ccc2O1`, for which the growth inhibition call is “inactive”. Same read-out and setting: as for `C[C@@H]1CN([C@H](C)CO)C(=O)c2cccc(NC(=O)C3CCCCC3)c2O[C@H]1CN(C)C(=O)Nc1ccc(C(F)(F)F)cc1`, the entry is “inactive”; as for `COc1ccccc1NC(=O)N(C)C[C@@H]1Oc2ncc(C#CC(C)C)cc2C(=O)N([C@H](C)CO)C[C@H]1C`, “inactive”.

`C[n+]1cccc(C(=O)O)c1`: the growth inhibition call was “inactive”.

Regarding `O=C(C[C@H]1CC[C@@H]2[C@H](COC[C@@H](O)CN2S(=O)(=O)c2ccccc2)O1)NCCN1CCCCC1`, the growth inhibition call was “inactive”. For `COCCCNC(=O)[C@@]1(Cc2ccccc2I)c2ccccc2C(=O)N(Cc2ccccc2OC)[C@H]1c1ccc(CO)cc1`, the growth inhibition call is “inactive”. Regarding `CC(C)NC(=O)N(C)C[C@@H]1Oc2cc(C#Cc3cccc(F)c3)ccc2S(=O)(=O)N([C@@H](C)CO)C[C@@H]1C`, the growth inhibition call is “inactive”. As to `Cc1noc(C)c1S(=O)(=O)Nc1ccc2c(c1)C(=O)N([C@@H](C)CO)C[C@H](C)[C@@H](CN(C)S(=O)(=O)c1ccc(F)cc1)O2`, the growth inhibition call was “inactive”. Still for that read-out and setting: in the case of `COc1cccc(CN(C)C[C@@H]2OCc3ccccc3-c3c(n(C)c4ccccc34)C(=O)N([C@H](C)CO)C[C@H]2C)c1` it was “inactive”; in that of `Cc1cc(C)n(-c2nc(=O)cc(C)[nH]2)n1`, “inactive”. For the compound `C[C@@H]1CN([C@H](C)CO)C(=O)c2cc(NS(=O)(=O)c3ccccc3)ccc2O[C@H]1CN(C)Cc1ccc(-c2ccccc2)cc1`, the growth inhibition call was “inactive”. The same measure, in the same setting: in the case of `C=CCCCCCCCCC(=O)Nc1ccccc1C` it was “inactive”; in that of `C[C@H](CO)N1C[C@H](C)[C@H](CN(C)C(=O)Nc2ccc(F)cc2)Oc2c(NS(=O)(=O)c3cn(C)cn3)cccc2C1=O`, “inactive”.
